Measurements: article PMC8204860
Substitutions are numbered along the chain they refer to. No constants are given. Whether binding was seen depends on the method and setting. Binding seen in cells or lysates may run through a third protein. Some results given as binding are weak or reduced against the parent protein; the word gives no strength. Where a sequence is shown, tags or fusion partners need not be part of it.

Legend:
Assay in all cases: co-IP; yeast lysate (50 mM Tris pH 7.5, 0.2% NP40, 150 mM NaCl, 1 mM EDTA); Trs85-mNeonGreen captured on mNeonGreen-Trap resin, Trs23-6xHis-3xFLAG detected by anti-FLAG blot
[1] = biological target: T1, Trs85-mNeonGreen R618A, R619A, R620A, K621A (Saccharomyces cerevisiae) (UniProt P46944)
T1 sequence: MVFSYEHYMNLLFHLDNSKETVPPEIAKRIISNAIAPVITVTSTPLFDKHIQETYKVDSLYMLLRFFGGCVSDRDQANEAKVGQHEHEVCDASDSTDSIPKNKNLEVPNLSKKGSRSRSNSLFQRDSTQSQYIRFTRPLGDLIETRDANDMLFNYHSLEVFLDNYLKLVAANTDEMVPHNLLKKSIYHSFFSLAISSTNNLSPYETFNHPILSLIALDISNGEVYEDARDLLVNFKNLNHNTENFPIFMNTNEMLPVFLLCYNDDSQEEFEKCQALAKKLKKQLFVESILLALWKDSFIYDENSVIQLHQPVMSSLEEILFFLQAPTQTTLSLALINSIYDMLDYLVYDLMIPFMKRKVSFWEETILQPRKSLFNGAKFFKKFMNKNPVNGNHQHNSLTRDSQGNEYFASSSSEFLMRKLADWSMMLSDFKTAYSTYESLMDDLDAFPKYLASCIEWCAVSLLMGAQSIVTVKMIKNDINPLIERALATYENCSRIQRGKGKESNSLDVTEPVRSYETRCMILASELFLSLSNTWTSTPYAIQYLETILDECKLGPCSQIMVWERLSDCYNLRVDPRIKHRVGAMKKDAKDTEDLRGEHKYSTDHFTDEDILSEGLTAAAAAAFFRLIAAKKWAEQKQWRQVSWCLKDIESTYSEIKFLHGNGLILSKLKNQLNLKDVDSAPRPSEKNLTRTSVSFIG

[2] = biological target: T2, Trs85-mNeonGreen R618E, R619E, R620E, K621E (Saccharomyces cerevisiae) (UniProt P46944)
T2 sequence: T1 sequence with A618E, A619E, A620E, A621E

[3] = biological target: T3, Trs85-mNeonGreen, wild-type (Saccharomyces cerevisiae) (UniProt P46944)
T3 sequence: T1 sequence with A618R, A619R, A620R, A621K

B1: TRAPP core (endogenous in yeast, with Trs23-6xHis-3xFLAG) (complex, UniProt Q03784 1-219; P38334 1-175; Q03337 1-283; P36149 1-193; Q03630 1-159; Q99394 …)
chain 1: MAIETILVINKSGGLIYQRNFTNDEQKLNSNEYLILASTLHGVFAIASQLTPKALQLTQQTNIENTIPYIPYVGMSSNRSDTRNGGGNNNKHTNNEKLGSFKGDDFFKEPFTNWNKSGLRQLCTDQFTMFIYQTLTGLKFVAISSSVMPQRQPTIATTDKPDRPKSTSNLAIQIADNFLRKVYCLYSDYVMKDPSYSMEMPIRSNLFDEKVKKMVENLQ
chain 2: MPQYFAIIGKKDNPVYEIEFTNAENPQGFPQDLKELNPFILHASLDIVEDLQWQINPTSQLNGNGGNGSNGGGGFLRSRAVNNTDNCYLGKVDHFYGLAITAYISYSGMKFVMIHGNSANSSVVIDDNNMRSFYQEVHELYVKTLMNPFYKITDPIRSPAFDSRVRTLARKHLSK
chain 3: MSQRIIQPSASDQQFPGKSDGYEYTVGPKQAITSEASTTYIPSRIYSESLLFKRQEASLSAMAFLFQEMISQLHRTCKTAGDFETKLSDYGHNIGIRLLELLNFRASVSPSSLPRASAFLSQNESSSKLSNASNSPGMLANSSTATSASANERLQEKQTESLSNYITKMRRRDLKILDILQFIHGTLWSYLFNHVSDDLVKSSERDNEYMIVDNFPTLTQFIPGENVSCEYFVCGIIKGFLFNAGFPCGVTAHRMPQGGHSQRTVYLIQFDRQVLDREGLRFG
chain 4: MVSTTQSRSLKAMGEEIWKNKTEKINTELFTLTYGSIVAQLCQDYERDFNKVNDHLYSMGYNIGCRLIEDFLARTALPRCENLVKTSEVLSKCAFKIFLNITPNITNWSHNKDTFSLILDENPLADFVELPMDAMKSLWYSNILCGVLKGSLEMVQLDCDVWFVSDILRGDSQTEIKVKLNRILKDEIPIGED
chain 5: MGIYSFWIFDRHCNCIFDREWTLASNSASGTINSKQNEEDAKLLYGMIFSLRSITQKLSKGSVKNDIRSISTGKYRVHTYCTASGLWFVLLSDFKQQSYTQVLQYIYSHIYVKYVSNNLLSPYDFAENENEMRGQGTRKITNRNFISVLESFLAPMVNQ
chain 6: MSSTHSNNVGHPQSSPQGPLTEQQRAQQQYQIFENSLPKVSQSVYQMLLNEMVPLAMGIERQISGDVISSDSNVTSENGNINNMIKRLKIEEHHTVDIIRSHNLIHELYKADEEEKEKVLARLRNIGFQIGLKLSELLIFSNNPNLKFKEMDLLLIMKFICRDVWKQIFGKQIDNLKTNHRGTFYLLDYDYRPIQSFSLEEDAKNEELKMIEPFLEIPVGIIRGVLSSLGYSSEEVICLASFIDRPTDRPKTAFPKGVSFHVQVTMPQ
- binding [1]: no binding
- binding [2]: no binding
- binding [3]: binds
